The campaign covered roughly 3,200 compounds. About 75 (2%) showed an effect of 50% or more. This is one part of the list.
System: T1, S. aureus MSSA476
T1 construct: MSSA476
Set-up: species or system S. aureus MSSA476 (TSB) or V. cholerae SAD30 (LB); 384-well bacterial growth screen at 25 uM, OD600 relative to DMSO control
Details: relative growth, OD600, TSB; 25 µM; inhibitor

Compared with `CSc1ccccc1CC(C)NC(=O)CCl` (centres unmarked) [7-D14, 2-chloro-N-{1-[2-(methylsulfanyl)phenyl]propan-2-yl}acetamide], `CC(Cl)C(=O)N(C)Cc1ccccc1` (centres unmarked) [6-I13, N-benzyl-2-chloro-N-methylpropanamide] is higher in “% of control remaining” value: 105.808% for the first, 115.415% for the second.

First: CS(=O)(=O)NCCc1ccc(C(=O)CCl)cc1 [10-D06, N-{2-[4-(2-chloroacetyl)phenyl]ethyl}methanesulfonamide]
Second: CCOC(=O)c1ccc(NC(=O)CCl)cc1 [4-E17, ethyl 4-(2-chloroacetamido)benzoate]
The “% of control remaining” value of the first is lower: 79.375% for the first, 118.152% for the second.

First: Cc1ccc(NC(=O)C(C)Cl)cc1S(=O)(=O)N1CCOCC1 (centres unmarked) [5-D22, 2-chloro-N-[4-methyl-3-(morpholine-4-sulfonyl)phenyl]propanamide]
Second: CC(Cl)C(=O)Nc1ccc([N+](=O)[O-])cc1 (centres unmarked) [4-I18, 2-chloro-N-(4-nitrophenyl)propanamide]
The “% of control remaining” value of the first is lower: 99.0893% for the first, 122.344% for the second.

Going from `CCN(Cc1ccc(OC)c(F)c1)C(=O)CCl` [5-D09, 2-chloro-N-ethyl-N-[(3-fluoro-4-methoxyphenyl)methyl]acetamide] to `O=C(CCl)Cc1ccc(F)cc1Cl` [10-E19, 1-chloro-3-(2-chloro-4-fluorophenyl)propan-2-one], the “% of control remaining” value rises from 109.29% to 114.687%.

Going from `Cc1ccccc1N1C(=O)CSC1=C(C#N)C(=O)N1CCCCC1` [8-B12, 2-[3-(2-methylphenyl)-4-oxo-1,3-thiazolidin-2-ylidene]-3-oxo-3-(piperidin-1-yl)propanenitrile] to `CC(Cl)C(=O)N1CCN(c2nc3ccccc3o2)C(C)C1` (centres unmarked) [7-K22, 1-[4-(1,3-benzoxazol-2-yl)-3-methylpiperazin-1-yl]-2-chloropropan-1-one], the “% of control remaining” value rises from 76.6805% to 90.4239%.

Compared with `C=CC(=O)NC(Cn1cnc2ccccc21)c1ccc(F)cc1` (centres unmarked) [2-C11, N-[2-(1H-1,3-benzodiazol-1-yl)-1-(4-fluorophenyl)ethyl]prop-2-enamide], `C=CC(=O)Nc1cc(C)nn1-c1ccccc1F` [2-C15, N-[1-(2-fluorophenyl)-3-methyl-1H-pyrazol-5-yl]prop-2-enamide] is lower in “% of control remaining” value: 122.193% for the first, 108.616% for the second.

Going from `CC(Cl)C(=O)N(CCC#N)c1ccccc1` (centres unmarked) [6-M18, 2-chloro-N-(2-cyanoethyl)-N-phenylpropanamide] to `CC(Cl)C(=O)N1CCN(Cc2nnnn2-c2ccccc2)CC1` (centres unmarked) [7-N05, 2-chloro-1-{4-[(1-phenyl-1H-1,2,3,4-tetrazol-5-yl)methyl]piperazin-1-yl}propan-1-one], the “% of control remaining” value rises from 89.8049% to 103.925%.

First: CC(Cl)C(=O)NC1COCc2ccccc21 (centres unmarked) [6-B05, 2-chloro-N-(3,4-dihydro-1H-2-benzopyran-4-yl)propanamide]
Second: O=C(CCl)NC1COc2ncccc21 (centres unmarked) [7-F10, 2-chloro-N-{2H,3H-furo[2,3-b]pyridin-3-yl}acetamide]
The “% of control remaining” value of the first is lower: 82.6341% for the first, 98.5871% for the second.

Going from `C=CC(=O)N1CCC(C(=O)NCC2COC3(CCCC3)O2)CC1` (centres unmarked) [3-A16, N-({1,4-dioxaspiro[4.4]nonan-2-yl}methyl)-1-(prop-2-enoyl)piperidine-4-carboxamide] to `C=CC(=O)N1CCC(C(=O)NCCO)CC1` [3-C18, N-(2-hydroxyethyl)-1-(prop-2-enoyl)piperidine-4-carboxamide], the “% of control remaining” value falls from 117.37% to 103.439%.

First: C=CC(=O)NCCC(=O)N1CCc2ncncc2C1 [2-C04, N-(3-oxo-3-{5H,6H,7H,8H-pyrido[4,3-d]pyrimidin-6-yl}propyl)prop-2-enamide]
Second: CC(Cl)C(=O)N1CCc2ncccc2C1 (centres unmarked) [7-I19, 2-chloro-1-(5,6,7,8-tetrahydro-1,6-naphthyridin-6-yl)propan-1-one]
The “% of control remaining” value of the first is higher: 106.876% for the first, 82.8885% for the second.

Going from `COc1cc(OC)c(C(=O)CCl)c(OC)c1` [10-L04, 2-chloro-1-(2,4,6-trimethoxyphenyl)ethan-1-one] to `C=CC(=O)Nc1cc(OC)ccc1C(=O)N(C)OC` [1-J14, N,4-dimethoxy-N-methyl-2-(prop-2-enamido)benzamide], the “% of control remaining” value rises from 106.563% to 111.824%.

First: C=CC(=O)N1CCC(C(=O)N2Cc3ccccc3C[C@H]2C(N)=O)CC1 [3-C19, (3S)-2-[1-(prop-2-enoyl)piperidine-4-carbonyl]-1,2,3,4-tetrahydroisoquinoline-3-carboxamide]
Second: C=CC(=O)NCc1ccc(N2CCCC(C(N)=O)C2)cc1 (centres unmarked) [1-P19, 1-{4-[(prop-2-enamido)methyl]phenyl}piperidine-3-carboxamide]
The “% of control remaining” value of the first is higher: 110.753% for the first, 109.714% for the second.

Going from `CC(Cl)C(=O)Nc1cc(Cl)ccc1Cl` (centres unmarked) [6-A15, 2-chloro-N-(2,5-dichlorophenyl)propanamide] to `O=C(CCl)Nc1cc(-n2cnnn2)ccc1Cl` [6-A05, 2-chloro-N-[2-chloro-5-(1H-1,2,3,4-tetrazol-1-yl)phenyl]acetamide], the “% of control remaining” value falls from 97.6585% to 78.1951%.

Going from `CCOc1ccc(S(=O)(=O)N2CCN(C(=O)CCl)CC2)cc1` [4-P15, 2-chloro-1-[4-(4-ethoxybenzenesulfonyl)piperazin-1-yl]ethan-1-one] to `Cl.O=C(CCl)N1CCN(CCOc2ccccc2)CC1` [4-H14, 2-chloro-1-[4-(2-phenoxyethyl)piperazin-1-yl]ethan-1-one hydrochloride], the “% of control remaining” value falls from 109.004% to 89.1853%.

Going from `CC(Cl)C(=O)N1CCCN(c2ccc(-c3ccccc3)nn2)CC1` (centres unmarked) [7-L15, 2-chloro-1-[4-(6-phenylpyridazin-3-yl)-1,4-diazepan-1-yl]propan-1-one] to `CC(Cl)C(=O)Nc1cc(C(C)(C)C)nn1-c1ccccc1` (centres unmarked) [4-H11, N-(3-tert-butyl-1-phenyl-1H-pyrazol-5-yl)-2-chloropropanamide], the “% of control remaining” value rises from 85.7143% to 101.382%.

Compared with `C=CC(=O)Nc1ccccc1-c1nnnn1C` [1-M05, N-[2-(1-methyl-1H-1,2,3,4-tetrazol-5-yl)phenyl]prop-2-enamide], `COc1cc(Cl)c(C)cc1NC(=O)C(C#N)=CC=Cc1ccccc1` [8-A21, N-(4-chloro-2-methoxy-5-methylphenyl)-2-cyano-5-phenylpenta-2,4-dienamide] is lower in “% of control remaining” value: 108.659% for the first, 102.905% for the second.

Compared with `N#CC(=Cc1c(C2CC2)nc2sccn12)C(=O)NC1CCCCC1` [9-H18, 2-cyano-N-cyclohexyl-3-{6-cyclopropylimidazo[2,1-b][1,3]thiazol-5-yl}prop-2-enamide], `Cc1nc2cc(NC(=O)C(C#N)=Cc3ccco3)ccc2n1C` [9-B18, 2-cyano-N-(1,2-dimethyl-1H-1,3-benzodiazol-5-yl)-3-(furan-2-yl)prop-2-enamide] is higher in “% of control remaining” value: 95.8801% for the first, 98.8764% for the second.

Going from `O=C(CCl)NCC(c1ccccc1)c1c[nH]c2ccccc12` (centres unmarked) [6-C08, 2-chloro-N-[2-(1H-indol-3-yl)-2-phenylethyl]acetamide] to `O=C(CCl)Nc1ccc(OCc2ccccc2)cc1` [6-K07, N-[4-(benzyloxy)phenyl]-2-chloroacetamide], the “% of control remaining” value rises from 73.4146% to 98%.

Compared with `C=CC(=O)NCc1nc(C2CC2)oc1C` [2-P13, N-[(2-cyclopropyl-5-methyl-1,3-oxazol-4-yl)methyl]prop-2-enamide], `C=CC(=O)NCc1ccnc(N2CCOCC2)c1` [1-C09, N-{[2-(morpholin-4-yl)pyridin-4-yl]methyl}prop-2-enamide] is higher in “% of control remaining” value: 84.9434% for the first, 107.253% for the second.

Compared with `CCN(C(=O)CCl)C1CCCCC1` [5-D11, 2-chloro-N-cyclohexyl-N-ethylacetamide], `Cc1cccc(NC(=O)[C@@H]2CCCN2C(=O)CCl)n1` [5-C06, (2S)-1-(2-chloroacetyl)-N-(6-methylpyridin-2-yl)pyrrolidine-2-carboxamide] is higher in “% of control remaining” value: 111.111% for the first, 115.118% for the second.

First: Cc1nnnn1CCNC(=O)C(C)Cl (centres unmarked) [7-A19, 2-chloro-N-[2-(5-methyl-1H-1,2,3,4-tetrazol-1-yl)ethyl]propanamide]
Second: CCSc1nnc(NC(=O)CCl)s1 [5-N22, 2-chloro-N-[5-(ethylsulfanyl)-1,3,4-thiadiazol-2-yl]acetamide]
The “% of control remaining” value of the first is lower: 106.122% for the first, 123.497% for the second.

Going from `COCCNC(=O)C(C#N)=Cc1c(F)cccc1Cl` [8-O21, 3-(2-chloro-6-fluorophenyl)-2-cyano-N-(2-methoxyethyl)prop-2-enamide] to `O=C(CCl)NC(c1ccc(F)c(Cl)c1)C(F)(F)F` (centres unmarked) [7-D16, 2-chloro-N-[1-(3-chloro-4-fluorophenyl)-2,2,2-trifluoroethyl]acetamide], the “% of control remaining” value falls from 108.216% to 84.1444%.

Going from `COc1ccc(CCN2C(=O)C=CC2=O)cc1` [10-A05, 1-[2-(4-methoxyphenyl)ethyl]-2,5-dihydro-1H-pyrrole-2,5-dione] to `O=C(c1ccccc1)c1cc(Cl)ccc1N1C(=O)C=CC1=O` [10-M16, 1-(2-benzoyl-4-chlorophenyl)-2,5-dihydro-1H-pyrrole-2,5-dione], the “% of control remaining” value falls from 135.625% to 128.125%.

`O=C(Nc1ccc(F)cc1)N1CCSSCC1` [10-D21, N-(4-fluorophenyl)-1,2,5-dithiazepane-5-carboxamide] was tested, and the “% of control remaining” value was 105.313%.

From publication PMC11995724, “Antibiotic target discovery by integrated phenotypic and activity-based profiling of electrophilic fragments” (Cell chemical biology, 2025)
